Paper PMC6919601, “Identification of Plasmodium dipeptidyl aminopeptidase allosteric inhibitors by high throughput screening” (PLoS ONE, 2019)
In all, about 110,000 compounds went through this assay and about 230 (0.21%) showed an effect of 50% or more. Some of the results follow.

molecular target: DPAP1 (Plasmodium falciparum, UniProt Q8IIJ9); test: primary screen, percent inhibition; read by cleavage of a fluorogenic dipeptide substrate; higher = more effect of the substance; set-up: species or system P. falciparum D10 trophozoite lysates; single well
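Note: 30 min substrate incubation versus DMSO and 10 µM JCP410 controls.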

Sequence of DPAP1 (Q8IIJ9 whole entry, looked up): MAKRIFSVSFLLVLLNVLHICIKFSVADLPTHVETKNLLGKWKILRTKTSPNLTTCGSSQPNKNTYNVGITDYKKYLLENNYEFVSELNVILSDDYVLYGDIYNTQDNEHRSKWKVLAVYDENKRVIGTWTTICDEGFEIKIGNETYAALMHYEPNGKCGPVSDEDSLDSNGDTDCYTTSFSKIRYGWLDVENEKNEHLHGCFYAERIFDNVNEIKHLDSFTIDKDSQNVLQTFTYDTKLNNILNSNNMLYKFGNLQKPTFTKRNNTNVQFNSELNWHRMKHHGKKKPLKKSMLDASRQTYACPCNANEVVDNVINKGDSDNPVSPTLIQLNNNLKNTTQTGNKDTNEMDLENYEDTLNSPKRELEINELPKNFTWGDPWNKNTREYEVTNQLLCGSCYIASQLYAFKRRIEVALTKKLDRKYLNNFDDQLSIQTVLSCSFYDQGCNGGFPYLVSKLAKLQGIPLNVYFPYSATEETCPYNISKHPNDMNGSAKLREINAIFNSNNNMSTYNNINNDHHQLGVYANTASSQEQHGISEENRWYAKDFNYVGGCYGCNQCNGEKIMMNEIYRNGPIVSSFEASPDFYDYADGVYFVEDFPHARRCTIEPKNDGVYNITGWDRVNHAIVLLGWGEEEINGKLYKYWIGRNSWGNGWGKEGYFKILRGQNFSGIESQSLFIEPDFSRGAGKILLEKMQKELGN

| SMILES | % Inhibition @ 10 uM [%] |
| --- | --- |
| O=C1C2C3CCC(O3)C2C(=O)N1n1cnnc1 (stereo not drawn) | -0.999 |
| COc1ccc(/C=N/CC2OCCc3ccccc32)c(OC)c1 (stereo not drawn) | 11.4 |
| CC1(C)CC(NC(=O)CN2CCCC2=O)CC(C)(C)N1 | 3.9 |
| CC(NC(=O)C1(c2ccccc2)CCOCC1)c1ccccc1 (stereo not drawn) | 7.98 |
| Cc1cccc(S(=O)(=O)Nc2ccc(-c3cn4cccnc4n3)cc2)c1 | 3.48 |
| COCc1nnc(NC(=O)Cn2cnc3c2c(=O)n(C)c(=O)n3C)s1 | 1.91 |
| CN(C)C(c1ccc(Cl)cc1Cl)c1nnnn1-c1cccc(Cl)c1 (stereo not drawn) | 2.8 |
| Cc1ccc(Cn2cnc3c(cnn3C(C)(C)C)c2=O)cc1 | 3.24 |
| CCCNC(=O)Nc1ccc2c(c1)nc(C)n2C | -7.62 |
| COc1ccccc1C1CC(c2ccc(C)cc2)=NN1S(C)(=O)=O (stereo not drawn) | -0.185 |
| O=C1CCC(=O)N1c1ccccc1O | 1.24 |
| CCN(CC)c1ccc2c(C)c(CO)c(=O)oc2c1 | -3.66 |
| Cc1ccc(/C=C2\C(=N)N3N=C(S(=O)(=O)CC(C)C)SC3=NC2=O)cc1 | -1.54 |
| COc1ccc(-c2cc(C(=O)N3CCOCC3)c3cc(Br)ccc3n2)cc1 | 1.8 |
| CC(=O)n1cc(C(C[N+](=O)[O-])SCCN)c2ccccc21 (stereo not drawn) | 1.7 |
| Cc1cccn2c(=O)c(/C=C(\C#N)C(=O)NCc3ccccc3)c(Oc3ccc(Cl)cc3)nc12 | -1.65 |
| Cc1ccc(S(N)(=O)=O)cc1NC(=O)Cc1ccccc1 | -3.47 |
| CCOc1ccccc1NC(=O)c1ccc(OC(F)F)c(OC)c1 | 4.03 |
| NC(=O)C1CCN(C(=O)c2ccc(C#CC3(O)CCCCC3)cc2)CC1 | 2.05 |
| Cc1ccccc1Cn1c2ccccc2c2cnn(CC(=O)NCc3ccc(F)cc3)c(=O)c21 | 6.27 |
| CN(Cc1ccccc1)S(=O)(=O)c1ccc(NC(=O)c2ccc(Br)o2)cc1 | -1.37 |
| CCOC(=O)c1c(C)n(-c2ccccc2)c2ccc(O)c(CN(C)C)c12 | -1.85 |
| Cc1ccc2c(Cl)c(C(=O)N3CCCCCC3)sc2c1 | -3.35 |
| CCOCCCNC(=O)c1ccc(CSc2nc3ccncc3n2Cc2ccccc2C)cc1 | -5.49 |
| Cc1ccc(N(CC(=O)NCc2ccccc2Cl)S(C)(=O)=O)c(C)c1 | 3.1 |
| CC(C)Oc1ccc(C(=O)NC(CC(=O)O)c2ccccc2)cc1 (stereo not drawn) | -1.52 |

| SMILES | % Inhibition @ 10 uM [%] |
| --- | --- |
| Oc1nc(NC2CCCCC2)nnc1Cc1ccccc1 | 0.457 |
| Cc1ccc(-c2cc(C(=O)NC(C)(C)CO)no2)cc1 | 3.54 |
| O=C(NCCc1ccccc1)c1ccc(NS(=O)(=O)c2cccc(Cl)c2)cc1 | -3.77 |
| Cc1ccc(-c2csc(Nc3ccccc3)n2)cc1 | -3.79 |
| CCOc1cc(CNc2ccccc2Cl)ccc1OC | -2.74 |
| Cc1ccc(C(O)C#Cc2ccccc2)o1 (stereo not drawn) | -0.13 |
| COc1ccc(C=C(C#N)C#N)cc1O | 3.32 |
| Cc1ccc(C)c(S(=O)(=O)Nc2ccccc2Cl)c1 | 0.132 |
| Cc1ccc(C)c(N(CC(=O)Nc2ccc(S(=O)(=O)N3CCCCC3)cc2)S(C)(=O)=O)c1 | -4.05 |
| Cc1ccc(S(=O)(=O)c2nc(S(C)(=O)=O)sc2N(C)C2CCCCC2)cc1 | -0.522 |
| CC(C)N(CCC#N)S(=O)(=O)c1ccccc1[N+](=O)[O-] | -6.99 |
| Cc1nn(-c2ccccc2)c2c1C1(C(=O)Nc3ccc(Cl)cc31)C(C#N)=C(N)O2 (stereo not drawn) | -4.4 |
| CN(C(=O)c1ccccc1)C1(C(=O)NC2CCCC2)CCCCC1 | 3.9 |
| O=C(Cn1ncc2c3ccccc3n(Cc3ccccc3F)c2c1=O)NCCCN1CCCCC1 | -7.1 |
| CC1=C(C(=O)Nc2ccccc2C)C(c2cccs2)n2c(s/c(=C/c3cn(C)nc3C)c2=O)=N1 (stereo not drawn) | 3.9 |
| COc1ccc(CN2CCN(c3cccc(C(F)(F)F)c3)CC2)cc1OC | 3.1 |
| C1C2CC3CC1CC(C2)C3Nc1nc2nonc2nc1NC1C2CC3CC(C2)CC1C3 (stereo not drawn) | 3.06 |
| Nc1cc(=O)nc(SCC(=O)Nc2ccccn2)n1CCc1ccccc1 | 3.47 |
| CCOc1cc(/C=C2\SC(NC(C)=O)=NC2=O)ccc1OCc1ccccc1 | 2.84 |
| CC(C)(C)C(=O)Nc1ccc(NC(=O)C(C)(C)C)c(Cl)c1 | -14.2 |
| O=S(=O)(c1ccc(-n2cnnn2)cc1)N1CCN(c2cnccn2)CC1 | 5.43 |
| COc1ccc(CNC(=O)CSc2ncnc3[nH]cnc23)cc1 | 5.03 |
| CCn1c2ccccc2c2cc(CNc3ccccc3SC)ccc21 | 0.217 |
| Cc1ccc(C(=O)Nc2cccc(Cl)c2Cl)cc1 | 3 |
| COc1ccc(-c2csc3ncn(CC(=O)NCCc4ccccc4)c(=O)c23)cc1OC | 0.161 |
